Data reported in patent publication US20240016784A1, “Y BOX BINDING PROTEIN 1 INHIBITORS” (Oregon Health & Science University, priority 2020, published 2024).

Test system: OVCAR8 scrambled control (SC) cells
Experiment: Cell viability assay, transduced OVCAR8 cells
Conditions: Homo sapiens, OVCAR-8, read-out: IC50 (cell viability)

## O=C1OCC2=C1C(c1cccc(F)c1)c1cc3c(cc1N2CCO)OCO3 (stereo not shown) [SU056, 9-(3-fluorophenyl)-5-(2-hydroxyethyl)-6,9-dihydro-[1,3]dioxolo[4,5-g]furo[3,4-b]quinolin-8(5H)-one]
  IC50: 3.54 µM
